{"source": "paper PMC9911399", "about": "“Two distinct binding modes provide the RNA-binding protein RbFox with extraordinary sequence specificity”", "binders": {"B1": {"name": "AAUCCUA (DNA:RNA)", "RNA": "GGGAGACCGGAAUUCAGAUUGUCCAAUCCUAUUAAAUCCCGUCGUAGCCACCA", "DNA 1": "CAATCTGAATTCCGGTCTCCC", "DNA 2": "TGGTGGCTACGACGGGATT"}, "B2": {"name": "CGACUCA (DNA:RNA)", "RNA": "B1 RNA with A25C, A26G, U27A, C29U, U30C", "DNA 1": "CAATCTGAATTCCGGTCTCCC", "DNA 2": "TGGTGGCTACGACGGGATT"}, "B3": {"name": "GGAUAAG (DNA:RNA)", "RNA": "GGGAGACCGGAAUUCAGAUUGUCCGGAUAAGUUAAAUCCCGUCGUAGCCACCA", "DNA 1": "CAATCTGAATTCCGGTCTCCC", "DNA 2": "TGGTGGCTACGACGGGATT"}, "B4": {"name": "UCGUGAU (DNA:RNA)", "RNA": "B3 RNA with G25U, G26C, A27G, A29G, G31U", "DNA 1": "CAATCTGAATTCCGGTCTCCC", "DNA 2": "TGGTGGCTACGACGGGATT"}, "B5": {"name": "AAGGGGC (DNA:RNA)", "RNA": "B1 RNA with U27G, C28G, C29G, U30G, A31C", "DNA 1": "CAATCTGAATTCCGGTCTCCC", "DNA 2": "TGGTGGCTACGACGGGATT"}, "B6": {"name": "UUGACGC (DNA:RNA)", "RNA": "B1 RNA with A25U, A26U, U27G, C28A, U30G, A31C", "DNA 1": "CAATCTGAATTCCGGTCTCCC", "DNA 2": "TGGTGGCTACGACGGGATT"}, "B7": {"name": "AUACACG (DNA:RNA)", "RNA": "B3 RNA with G25A, G26U, U28C, A30C", "DNA 1": "CAATCTGAATTCCGGTCTCCC", "DNA 2": "TGGTGGCTACGACGGGATT"}, "B8": {"name": "CAAUUUG (DNA:RNA)", "RNA": "B3 RNA with G25C, G26A, A29U, A30U", "DNA 1": "CAATCTGAATTCCGGTCTCCC", "DNA 2": "TGGTGGCTACGACGGGATT"}, "B9": {"name": "GUUUUGU (DNA:RNA)", "RNA": "B3 RNA with G26U, A27U, A29U, A30G, G31U", "DNA 1": "CAATCTGAATTCCGGTCTCCC", "DNA 2": "TGGTGGCTACGACGGGATT"}, "B10": {"name": "CCGCAUC (DNA:RNA)", "RNA": "B1 RNA with A25C, A26C, U27G, C29A, A31C", "DNA 1": "CAATCTGAATTCCGGTCTCCC", "DNA 2": "TGGTGGCTACGACGGGATT"}, "B11": {"name": "AUGUCGC (DNA:RNA)", "RNA": "B1 RNA with A26U, U27G, C28U, U30G, A31C", "DNA 1": "CAATCTGAATTCCGGTCTCCC", "DNA 2": "TGGTGGCTACGACGGGATT"}, "B12": {"name": "GUAAGGC (DNA:RNA)", "RNA": "B3 RNA with G26U, U28A, A29G, A30G, G31C", "DNA 1": "CAATCTGAATTCCGGTCTCCC", "DNA 2": "TGGTGGCTACGACGGGATT"}, "B13": {"name": "AAGAGUU (DNA:RNA)", "RNA": "B1 RNA with U27G, C28A, C29G, A31U", "DNA 1": "CAATCTGAATTCCGGTCTCCC", "DNA 2": "TGGTGGCTACGACGGGATT"}, "B14": {"name": "ACGGGUU (DNA:RNA)", "RNA": "B1 RNA with A26C, U27G, C28G, C29G, A31U", "DNA 1": "CAATCTGAATTCCGGTCTCCC", "DNA 2": "TGGTGGCTACGACGGGATT"}, "B15": {"name": "CCAUUUU (DNA:RNA)", "RNA": "B3 RNA with G25C, G26C, A29U, A30U, G31U", "DNA 1": "CAATCTGAATTCCGGTCTCCC", "DNA 2": "TGGTGGCTACGACGGGATT"}, "B16": {"name": "CACCGGC (DNA:RNA)", "RNA": "B1 RNA with A25C, U27C, C29G, U30G, A31C", "DNA 1": "CAATCTGAATTCCGGTCTCCC", "DNA 2": "TGGTGGCTACGACGGGATT"}, "B17": {"name": "UCAUUCA (DNA:RNA)", "RNA": "B3 RNA with G25U, G26C, A29U, A30C, G31A", "DNA 1": "CAATCTGAATTCCGGTCTCCC", "DNA 2": "TGGTGGCTACGACGGGATT"}, "B18": {"name": "CCACCCG (DNA:RNA)", "RNA": "B1 RNA with A25C, A26C, U27A, U30C, A31G", "DNA 1": "CAATCTGAATTCCGGTCTCCC", "DNA 2": "TGGTGGCTACGACGGGATT"}, "B19": {"name": "GACGAAA (DNA:RNA)", "RNA": "B3 RNA with G26A, A27C, U28G, G31A", "DNA 1": "CAATCTGAATTCCGGTCTCCC", "DNA 2": "TGGTGGCTACGACGGGATT"}, "B20": {"name": "CGCAGGG (DNA:RNA)", "RNA": "B3 RNA with G25C, A27C, U28A, A29G, A30G", "DNA 1": "CAATCTGAATTCCGGTCTCCC", "DNA 2": "TGGTGGCTACGACGGGATT"}, "B21": {"name": "AACGCAG (DNA:RNA)", "RNA": "B1 RNA with U27C, C28G, U30A, A31G", "DNA 1": "CAATCTGAATTCCGGTCTCCC", "DNA 2": "TGGTGGCTACGACGGGATT"}, "B22": {"name": "AACCGCU (DNA:RNA)", "RNA": "B1 RNA with U27C, C29G, U30C, A31U", "DNA 1": "CAATCTGAATTCCGGTCTCCC", "DNA 2": "TGGTGGCTACGACGGGATT"}, "B23": {"name": "CCACAAG (DNA:RNA)", "RNA": "B3 RNA with G25C, G26C, U28C", "DNA 1": "CAATCTGAATTCCGGTCTCCC", "DNA 2": "TGGTGGCTACGACGGGATT"}, "B24": {"name": "CGCGUCU (DNA:RNA)", "RNA": "B3 RNA with G25C, A27C, U28G, A29U, A30C, G31U", "DNA 1": "CAATCTGAATTCCGGTCTCCC", "DNA 2": "TGGTGGCTACGACGGGATT"}, "B25": {"name": "AAGUUAC (DNA:RNA)", "RNA": "B1 RNA with U27G, C28U, C29U, U30A, A31C", "DNA 1": "CAATCTGAATTCCGGTCTCCC", "DNA 2": "TGGTGGCTACGACGGGATT"}, "B26": {"name": "UGGUCUG (DNA:RNA)", "RNA": "B3 RNA with G25U, A27G, A29C, A30U", "DNA 1": "CAATCTGAATTCCGGTCTCCC", "DNA 2": "TGGTGGCTACGACGGGATT"}, "B27": {"name": "CACCGCG (DNA:RNA)", "RNA": "B1 RNA with A25C, U27C, C29G, U30C, A31G", "DNA 1": "CAATCTGAATTCCGGTCTCCC", "DNA 2": "TGGTGGCTACGACGGGATT"}, "B28": {"name": "CUCACUA (DNA:RNA)", "RNA": "B1 RNA with A25C, A26U, U27C, C28A", "DNA 1": "CAATCTGAATTCCGGTCTCCC", "DNA 2": "TGGTGGCTACGACGGGATT"}, "B29": {"name": "UAAAAUA (DNA:RNA)", "RNA": "B1 RNA with A25U, U27A, C28A, C29A", "DNA 1": "CAATCTGAATTCCGGTCTCCC", "DNA 2": "TGGTGGCTACGACGGGATT"}, "B30": {"name": "UUACGAA (DNA:RNA)", "RNA": "B1 RNA with A25U, A26U, U27A, C29G, U30A", "DNA 1": "CAATCTGAATTCCGGTCTCCC", "DNA 2": "TGGTGGCTACGACGGGATT"}, "B31": {"name": "UUGUGUA (DNA:RNA)", "RNA": "B1 RNA with A25U, A26U, U27G, C28U, C29G", "DNA 1": "CAATCTGAATTCCGGTCTCCC", "DNA 2": "TGGTGGCTACGACGGGATT"}}, "note": "Changes are numbered by the printed parent chain; changes in the protein carry UniProt numbers. The list shows a part of the results."}
{"biological_target": "T1, RBFOX1 RRM RbFoxmut (Fox-RRM*) (Homo sapiens, UniProt Q9NWB1 109-208, R118D;E147R;N151S;E152T)", "T1 sequence": "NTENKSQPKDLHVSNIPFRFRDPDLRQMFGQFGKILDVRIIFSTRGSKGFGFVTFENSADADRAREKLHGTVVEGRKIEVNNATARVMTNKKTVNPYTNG", "experiment": "EMSA; HiTS-Eq, 1 nM pool, 10 min; buffer printed only for the single-RNA assays: 10 mM Tris pH 7.5, 150 mM NaCl, 3.4 mM EDTA, 0.001% NP-40, 30 C", "settings": "tags: His6 N-terminal (pET28a); label: 5' 32P", "procedure,_shortened": "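A pool of RNA with 7 randomized nucleotides, 5′-radiolabelled and with DNA-annealed flanks, was equilibrated at 1 nM for 10 min in 50 µL with purified RbFox RRM, wild type or mutant, across increasing protein concentrations. Free RNA was separated by 8% native PAGE, excised, reverse-transcribed, barcoded by PCR and sequenced. Relative association constants were obtained from read-count changes of each RNA species versus the control reaction and normalised to the cognate motif.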"}
{"binder": "B1", "binding signal": "0.0671 KA relative to UGCAUGU"}
{"binder": "B2", "binding signal": "0.0921 KA relative to UGCAUGU"}
{"binder": "B3", "binding signal": "0.0989 KA relative to UGCAUGU"}
{"binder": "B4", "binding signal": "0.086 KA relative to UGCAUGU"}
{"binder": "B5", "binding signal": "0.094 KA relative to UGCAUGU"}
{"binder": "B6", "binding signal": "0.0672 KA relative to UGCAUGU"}
{"binder": "B7", "binding signal": "0.0989 KA relative to UGCAUGU"}
{"binder": "B8", "binding signal": "0.0578 KA relative to UGCAUGU"}
{"binder": "B9", "binding signal": "0.161 KA relative to UGCAUGU"}
{"binder": "B10", "binding signal": "0.258 KA relative to UGCAUGU"}
{"binder": "B11", "binding signal": "0.0947 KA relative to UGCAUGU"}
{"binder": "B12", "binding signal": "0.0558 KA relative to UGCAUGU"}
{"binder": "B13", "binding signal": "0.0992 KA relative to UGCAUGU"}
{"binder": "B14", "binding signal": "0.14 KA relative to UGCAUGU"}
{"binder": "B15", "binding signal": "0.0736 KA relative to UGCAUGU"}
{"binder": "B16", "binding signal": "0.0862 KA relative to UGCAUGU"}
{"binder": "B17", "binding signal": "0.111 KA relative to UGCAUGU"}
{"binder": "B18", "binding signal": "0.112 KA relative to UGCAUGU"}
{"binder": "B19", "binding signal": "0.085 KA relative to UGCAUGU"}
{"binder": "B20", "binding signal": "0.0806 KA relative to UGCAUGU"}
{"binder": "B21", "binding signal": "0.0529 KA relative to UGCAUGU"}
{"binder": "B22", "binding signal": "0.072 KA relative to UGCAUGU"}
{"binder": "B23", "binding signal": "0.107 KA relative to UGCAUGU"}
{"binder": "B24", "binding signal": "0.0875 KA relative to UGCAUGU"}
{"binder": "B25", "binding signal": "0.0976 KA relative to UGCAUGU"}
{"binder": "B26", "binding signal": "0.374 KA relative to UGCAUGU"}
{"binder": "B27", "binding signal": "0.124 KA relative to UGCAUGU"}
{"binder": "B28", "binding signal": "0.105 KA relative to UGCAUGU"}
{"binder": "B29", "binding signal": "0.074 KA relative to UGCAUGU"}
{"binder": "B30", "binding signal": "0.0964 KA relative to UGCAUGU"}
{"binder": "B31", "binding signal": "0.315 KA relative to UGCAUGU"}
